Laboratory results reported in PubChem BioAssay AID360 (National Center for Advancing Translational Sciences (NCATS), 2006).
In all, about 48,000 compounds went through this assay and about 550 (1.1%) were called active. Not shown: some 4% with an inconclusive outcome. Rule as the data show it: active = potency below about 15 µM; inconclusive = mostly about 16 µM to 33 µM; inactive = weaker than that. Some of the results follow.

target: Lysosomal acid glucosylceramidase (Homo sapiens) (UniProt P04062); test: Glucocerebrosidase; details: purified enzyme, resorufin glucoside fluorescence (screen aimed at inhibitors), 20 min;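 also: the screen sought inhibitors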
UniProt P04062, sequence (P04062 whole entry, looked up): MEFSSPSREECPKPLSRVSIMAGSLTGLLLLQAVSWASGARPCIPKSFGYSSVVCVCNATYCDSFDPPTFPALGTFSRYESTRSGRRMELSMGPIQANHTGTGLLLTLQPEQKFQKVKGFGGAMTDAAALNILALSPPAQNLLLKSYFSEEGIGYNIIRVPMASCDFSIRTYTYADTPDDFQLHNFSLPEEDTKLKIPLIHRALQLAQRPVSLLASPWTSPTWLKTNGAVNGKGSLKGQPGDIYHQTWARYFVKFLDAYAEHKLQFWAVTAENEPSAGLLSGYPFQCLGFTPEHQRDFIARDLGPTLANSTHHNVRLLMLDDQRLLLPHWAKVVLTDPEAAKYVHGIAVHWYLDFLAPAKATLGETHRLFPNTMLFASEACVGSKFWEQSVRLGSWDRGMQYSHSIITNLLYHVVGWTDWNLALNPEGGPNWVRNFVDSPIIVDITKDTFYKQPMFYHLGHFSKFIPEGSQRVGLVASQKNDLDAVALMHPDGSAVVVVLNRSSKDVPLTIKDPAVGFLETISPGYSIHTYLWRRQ
Outline: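 Normal human glucocerebrosidase (0.2 nM final) was assayed with resorufin β-D-glucopyranoside (30 uM final) in 50mM citric acid/KH2PO4, 10mM sodium taurocholate, 0.01% tween-20, pH 5.9. Compounds were titrated; fluorescence (Ex 548, Em 600) read after 20 min at RT.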
Potency is read from the fitted curve at half-maximal effect.

Potency, inactive:
CCCCCCSc1nsc(NC(C)=O)n1 > 76.9 µM
CC(C)=CC(=O)OCC(=O)Nc1ccccc1Cl > 76.9 µM
O=C(COc1ncnc2ccc(Br)cc12)N1CCOCC1 > 76.9 µM
O=C(Nc1nccs1)c1ccc(COc2ccc(F)cc2)o1 > 76.9 µM
c1ccc(-c2csc(Nc3cccnc3)n2)nc1 > 76.9 µM
CCOC(=O)CNc1c(-c2ccc(F)cc2)nc2cnccn12 > 76.9 µM
CCOC(=O)c1c(C)c(C(=O)NCc2ccccn2)c(C)n1C > 76.9 µM
OCCOCCOCCn1c2ccccc2c2ccccc21 > 76.9 µM
CCC(=O)N1CCc2cc(S(=O)(=O)N3CCN(c4ccccn4)CC3)ccc21 > 76.9 µM
O=C(Cn1cnc2c(nnn2-c2ccc(F)cc2)c1=O)NCC1CCCO1 (configuration not stated) > 76.9 µM
CCNc1ccc2c(Cl)cc(=O)oc2c1 > 76.9 µM
CCOC(=O)C1(C(F)(F)F)N=C(c2cccnc2)OC(N2CCOCC2)=N1 (configuration not stated) > 76.9 µM
COCCNC(=O)C(c1ccc(F)cc1)N(Cc1ccco1)C(=O)CCC(=O)Nc1nccs1 (configuration not stated) > 76.9 µM
COc1ccccc1NC(=O)C(CCS(C)(=O)=O)N1C(=O)c2ccccc2C1=O (configuration not stated) > 76.9 µM
CC(C(=O)Oc1ccc2c(c1)OCO2)N1C(=O)c2ccccc2C1=O (configuration not stated) > 76.9 µM
O=c1[nH]c(=O)n(CCO)c2nnn(Cc3ccccc3)c12 > 76.9 µM
CCCNC(=O)NC(=O)CN1C(=O)NC(C)(c2ccc(C)cc2)C1=O (configuration not stated) > 76.9 µM
COC(=O)CN1CCN(C(=O)c2ccc(F)cc2)c2ccccc2C1 > 76.9 µM
CC(C)CCn1c(SCCc2ccccc2)nc2c1c(=O)[nH]c(=O)n2C > 76.9 µM
O=C(CCC(=O)N(c1cccc(F)c1)C(C(=O)NC1CCCC1)c1ccncc1)Nc1cccnc1 (configuration not stated) > 76.9 µM
Cc1ccnc(NC(=O)C23CC4CC(CC(C4)C2)C3)c1
Cc1ccc(S(=O)(=O)N(CC(=O)O)Cc2ccccc2)cc1 > 76.9 µM
CC(=O)OCc1cc2cc(C)ccc2[nH]c1=O > 76.9 µM
O=C(c1ccncc1)N(Cc1ccco1)Cc1cc2ccccc2[nH]c1=O > 76.9 µM
COc1ccc(-n2cnc3c(cnn3CCC#N)c2=N)cc1 > 76.9 µM
COc1cc2c(cc1OC)C(C(=O)Nc1ccc3c(c1)OCCO3)C(c1cccnc1)N(C)C2=O (configuration not stated) > 76.9 µM
COc1ccc(Cn2c(=O)n(Cc3ccco3)c(=N)c3c4c(sc32)COC(C)(C)C4)cc1 > 76.9 µM
COC(=O)c1nc(N)sc1-c1ccccc1 > 76.9 µM
O=C(NCCSc1ccccc1)c1ccco1 > 76.9 µM
CCCCn1c(=O)c2ccccc2c2ccccc2c1=O > 76.9 µM
CCOc1cc(S(=O)(=O)n2c(C)nc3ccccc32)ccc1F > 76.9 µM
Nc1nc2nc(SCC(=O)N3CCCc4ccccc43)[nH]c2c(=O)[nH]1 > 76.9 µM
COC(=O)c1ccccc1NC(=O)CC#N > 76.9 µM
CCC(=O)Nc1cc(Cl)ccc1N1CCN(C(=O)CC)CC1 > 76.9 µM
CCOC(=O)Cn1nnnc1C(CC)N(Cc1cc2c(C)cc(C)cc2[nH]c1=O)C1CCCC1 (configuration not stated) > 76.9 µM
Cc1ccc2[nH]c(=O)c(COC(=O)c3ccccn3)cc2c1 > 76.9 µM
O=C(CSCc1cnn(-c2ccccc2)c1-n1cccc1)NCC1CCCO1 (configuration not stated) > 76.9 µM
CC(OC(=O)c1ccncc1)C(=O)Nc1cccc(Cl)c1 (configuration not stated) > 76.9 µM
CCOCCCNC(=O)C(c1ccc(C)cc1)N(Cc1ccc2c(c1)OCO2)C(=O)c1cnccn1 (configuration not stated) > 76.9 µM
COc1ccccc1C(=O)N1CCN=C1SC > 76.9 µM
O=C(CNC(=O)c1ccccc1)NCCc1nc2ccccc2[nH]1 > 76.9 µM
O=S(=O)(Cc1nc2ccccc2s1)c1ccccc1 > 76.9 µM
Cc1onc(-c2c(F)cccc2Cl)c1C(=O)Nc1ccc(S(=O)(=O)Nc2ncccn2)cc1 > 76.9 µM
O=C(Cn1cnc2ccccc21)Nc1cc(C(F)(F)F)ccc1N1CCOCC1 > 76.9 µM
C(#Cc1ccccc1)CN1CCN(c2ccccn2)CC1 > 76.9 µM
CC(C(=O)NCC1(c2ccccc2)CCCC1)N1CCCC1 (configuration not stated) > 76.9 µM
CCOC(=O)C1=C(C)Nc2nc(SCC(=O)OC)nn2C1c1cc(F)cc(F)c1 (configuration not stated) > 76.9 µM
CN(CCc1ccccn1)S(=O)(=O)c1ccccc1F > 76.9 µM
CCOC(=O)N1CCC(c2nc(C)sc2C(=O)O)CC1 > 76.9 µM
Cc1cc(=O)n2nc(N3CCCC3C(=O)NCc3ccccn3)sc2n1 (configuration not stated) > 76.9 µM
Cc1cnn(C(=S)NCc2ccc(Cl)cc2)c1 > 76.9 µM
COc1ccc(-c2csc(NCc3ccco3)n2)cc1 > 76.9 µM
CCOC(=O)c1cn(CC)c2ccc(S(=O)(=O)N3CC(C)CC(C)C3)cc2c1=O (configuration not stated) > 76.9 µM
COCC(C)NC(=O)c1cc(-c2cccc(OC)c2)on1 (configuration not stated) > 76.9 µM
CCOC(=O)Cn1nnnc1C(CC)N(Cc1cc2ccc(C)cc2[nH]c1=O)C1CCCC1 (configuration not stated) > 76.9 µM
Cc1cc(Br)ccc1NC(=O)C1CCCO1 (configuration not stated) > 76.9 µM
Cc1ccc2cccc(S(=O)(=O)n3nc(C)cc3C)c2n1 > 76.9 µM
COc1cc2c(cc1OC)-c1cc(NC3CCCC3)nc(=O)n1CC2 > 76.9 µM
O=c1[nH]c(-c2cccs2)nc2ccccc12 > 76.9 µM
O=C(c1nc2ccccc2s1)N1CCN(c2ccccn2)CC1 > 76.9 µM
Cc1nc2ccccc2c(=O)n1/N=C/c1c(O)ccc2oc3c(c12)CCCC3 > 76.9 µM
COCCN1C(=O)C(=O)/C(=C(/O)c2ccc(OC(C)C)cc2)C1c1cccnc1 (configuration not stated) > 76.9 µM
O=c1c2c3nc4ccccc4nc3n(-c3ccc4c(c3)OCCO4)c2ncn1CC1CCCO1 (configuration not stated) > 76.9 µM
CC(=O)NC(Cc1cc(C)ccc1C)C(=O)N1CCN(C(=O)Nc2ccc(C(C)=O)cc2)CC1 (configuration not stated) > 76.9 µM
COc1cc2c(cc1NC(=O)c1cncc(Br)c1)oc1ccccc12 > 76.9 µM
Cc1ccc(CS(=O)(=O)CCC(=O)NCc2ccc3c(c2)OCO3)cc1 > 76.9 µM
COc1cc2c(cc1NC(=O)Cn1cnc3c1c(=O)n(C)c(=O)n3C)oc1ccccc12 > 76.9 µM
COc1cc(OC)cc(C(=O)Nc2ccc3c(c2)COC3=O)c1 > 76.9 µM
CCCS(=O)(=O)N1CCC(C(=O)NCCCN2CCCC2=O)CC1 > 76.9 µM
CCc1ccccc1S(=O)(=O)Cc1ccc(C(=O)NCC2CCCO2)o1 (configuration not stated) > 76.9 µM
CCOC(=O)c1ccc(N2C(=O)C3C(C2=O)C(C(=O)c2ccc(Cl)cc2)N2CCCC32)cc1 (configuration not stated) > 76.9 µM
CSc1nnc2c3ccccc3n(Cc3ccccc3)c2n1 > 76.9 µM
CSc1ccccc1NC(=O)COc1ccc(S(=O)(=O)N2CCCC2)cc1 > 76.9 µM
COc1ccc(CN(C(=O)c2oc3ccccc3c2C)C2CCS(=O)(=O)C2)cc1OC (configuration not stated) > 76.9 µM
CSC1CCCCC1(O)CSc1nc2ccccc2o1 (configuration not stated) > 76.9 µM
Cc1noc(C)c1C(=O)N1CCN(CCc2ccccc2)CC1 > 76.9 µM
CCc1ccc(N/C(SC)=C(/C#N)C(N)=O)cc1 > 76.9 µM
Cc1ccc2c(c1)N(CC(=O)N1CCCc3ccccc31)C(=O)C(C)O2 (configuration not stated) > 76.9 µM
Cc1noc(C)c1COC(=O)c1ccc2c(c1)OCCO2 > 76.9 µM
CSc1c[n+]2c(n1C)CCC2 > 76.9 µM
O=C(CN1CCN(c2ccccn2)CC1)NCCc1ccccc1 > 76.9 µM
Cc1ccc(C)c(Cn2c(=O)n(CCCC(=O)NCc3ccco3)c(=O)c3ccccc32)c1 > 76.9 µM
C=C(C)CN=c1scc(C)n1/N=C/c1ccco1 > 76.9 µM
CC(=O)c1cccc(NS(=O)(=O)c2c(C)noc2C)c1 > 76.9 µM
O=C(CSc1nc(-c2ccncc2)nn1CC(=O)N1CCCCC1)NC1CCCC1 > 76.9 µM
Cc1cccc2cc(COC(=O)c3ccccn3)c(=O)[nH]c12 > 76.9 µM
Cc1onc(-c2ccccc2)c1C(=O)Nc1ccc2c(C)cc(=O)oc2c1 > 76.9 µM
COc1cc(OC)cc(-c2nnc(SCC(=O)N(Cc3ccccc3)C(C)(C)C)o2)c1 > 76.9 µM
CCn1nnnc1SCC(=O)N1c2ccccc2CCc2ccccc21 > 76.9 µM
CCc1ccc(S(=O)(=O)NCc2cn3ccsc3n2)s1 > 76.9 µM
CCC1(CC)C(=O)N(C)C(=O)NC1=NCc1ccccc1 > 76.9 µM
Cc1cc(C)c2nc(N3CCC(C(=O)N4CCCC4)CC3)sc2c1 > 76.9 µM
